Assay results reported in the supplement of paper PMC7125110.
± gives the standard error. This sample is rich in variants without activity.

B1: glmS ribozyme (parent)
chain: AUAAAAGCGCCAGAACUACAGAAAUGUAGUUGACGAGGAGGAGGUUUAUCGAAUUUUCGGCGGAUGCCUCCAAA

What was measured:
Conditions in all cases: with glucosamine-6-phosphate
glucosamine-6-phosphate [1] = variants of: B1; test: self-cleavage kobs at 640 uM GlcN6P; higher = faster cleavage; RNA array
Summary of the method: (§1)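 Weighted Michaelis–Menten fits across concentrations supplied kcat and KM, based on kobs from one- or two-exponential decay fits to normalised per-tile medians. The data came from barcoded ribozyme variants transcribed in situ by E. coli RNA polymerase on sequenced MiSeq chips and tracked at 37 °C by a hybridised Cy3 probe. Glucosamine-6-phosphate (40 μM to 10 mM) in HEPES/KCl/Mg(OAc)2 buffer was flowed in.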

glucosamine-6-phosphate [2] = variants of: B1; test: self-cleavage kobs at 160 uM GlcN6P; higher = faster cleavage; RNA array
Summary of the method: as §1

glucosamine-6-phosphate [3] = variants of: B1; test: self-cleavage kobs at 2500 uM GlcN6P; higher = faster cleavage; RNA array
Summary of the method: as §1

glucosamine-6-phosphate [4] = variants of: B1; test: self-cleavage kobs at 10000 uM GlcN6P; higher = faster cleavage; RNA array
Summary of the method: as §1

Variant | self-cleavage kobs at 640 uM GlcN6P (glucosamine-6-phosphate [1]) | self-cleavage kobs at 160 uM GlcN6P (glucosamine-6-phosphate [2]) | self-cleavage kobs at 2500 uM GlcN6P (glucosamine-6-phosphate [3]) | self-cleavage kobs at 10000 uM GlcN6P (glucosamine-6-phosphate [4])
C58A G62U | < 1e-05 s⁻¹ | < 1e-05 s⁻¹ | < 1e-05 s⁻¹ | < 1e-05 s⁻¹
C58G A64C C67U | 7.21e-05 ± 2e-05 s⁻¹ | – | – | –
C58G C68A U69G | 0.000107 ± 3.5e-05 s⁻¹ | – | 5.37e-05 ± 2.4e-05 s⁻¹ | –
C58G C70A | 4.04e-05 ± 1.9e-05 s⁻¹ | 0.000411 ± 0.00017 s⁻¹ | 5.93e-05 ± 1.4e-05 s⁻¹ | –
G59A G62A | < 1e-05 s⁻¹ | < 1e-05 s⁻¹ | < 1e-05 s⁻¹ | < 1e-05 s⁻¹
C61A C67A | 5.15e-05 ± 1.8e-05 s⁻¹ | 5.31e-05 ± 1.5e-05 s⁻¹ | – | –
A6C A15U | – | < 1e-05 s⁻¹ | – | –
A6C C8G G35C C58U C67G | – | < 1e-05 s⁻¹ | < 1e-05 s⁻¹ | –
A6C C8U C11U | – | < 1e-05 s⁻¹ | < 1e-05 s⁻¹ | –
A6C G7A C50U | – | < 1e-05 s⁻¹ | – | –
A6C G9U | – | < 1e-05 s⁻¹ | < 1e-05 s⁻¹ | < 1e-05 s⁻¹
A6C G9U C10U G13A U69G | – | < 1e-05 s⁻¹ | < 1e-05 s⁻¹ | –
A6C U55G | – | < 1e-05 s⁻¹ | – | –
A6G C70G | – | < 1e-05 s⁻¹ | – | –
A6G G32U C50G U57G C61A G66U | – | 0.000258 ± 4.1e-05 s⁻¹ | 0.000553 ± 9.8e-05 s⁻¹ | 9.54e-05 ± 1.9e-05 s⁻¹
A6U A12U G35U G60U | – | < 1e-05 s⁻¹ | – | –

Variant | self-cleavage kobs at 640 uM GlcN6P (glucosamine-6-phosphate [1]) | self-cleavage kobs at 160 uM GlcN6P (glucosamine-6-phosphate [2]) | self-cleavage kobs at 2500 uM GlcN6P (glucosamine-6-phosphate [3]) | self-cleavage kobs at 10000 uM GlcN6P (glucosamine-6-phosphate [4])
A6U A42C G60U | – | < 1e-05 s⁻¹ | < 1e-05 s⁻¹ | –
A6U C34U A36C C67A | – | < 1e-05 s⁻¹ | – | –
A6U G9A U49C | – | < 1e-05 s⁻¹ | – | –
A6U G13A C34A U57G | – | < 1e-05 s⁻¹ | < 1e-05 s⁻¹ | –
A6U G41C C68U | – | < 1e-05 s⁻¹ | < 1e-05 s⁻¹ | –
C8A C11U U55A | – | < 1e-05 s⁻¹ | < 1e-05 s⁻¹ | –
C8A G44C A52G U65A | – | < 1e-05 s⁻¹ | < 1e-05 s⁻¹ | –
C8U U54A G62C | – | < 1e-05 s⁻¹ | < 1e-05 s⁻¹ | –
G9A C11A A12C A14U | – | < 1e-05 s⁻¹ | < 1e-05 s⁻¹ | –
G9C G32C A33C A39G C61A | – | < 1e-05 s⁻¹ | < 1e-05 s⁻¹ | –
G9C G38C | – | < 1e-05 s⁻¹ | – | –
G9C G43C | – | < 1e-05 s⁻¹ | < 1e-05 s⁻¹ | –
G9U A14U G35U | – | < 1e-05 s⁻¹ | < 1e-05 s⁻¹ | –
C10A G13C U45A G51C | – | < 1e-05 s⁻¹ | – | –
C10G U47G G60U | – | < 1e-05 s⁻¹ | – | –
